The values below come from the BET-seq Pho4 binding data (Le et al. 2018).

The other results are listed elsewhere or left out. These are noisy estimates, calculated here from bound and input reads.

The assay concerns the target T1, Pho4 (S. cerevisiae) (UniProt P07270).
T1 sequence: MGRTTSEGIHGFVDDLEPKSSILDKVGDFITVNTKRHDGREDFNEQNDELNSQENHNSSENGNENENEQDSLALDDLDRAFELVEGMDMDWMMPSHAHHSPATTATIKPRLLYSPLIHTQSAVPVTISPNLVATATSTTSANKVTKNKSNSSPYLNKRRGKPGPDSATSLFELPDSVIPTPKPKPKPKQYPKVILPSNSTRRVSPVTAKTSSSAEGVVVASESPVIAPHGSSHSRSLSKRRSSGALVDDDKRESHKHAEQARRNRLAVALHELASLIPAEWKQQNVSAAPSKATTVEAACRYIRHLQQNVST
As to the kind of experiment: relative binding free energy (BET-seq); higher = weaker binding. To be noted: reference: library average.
With CCATTCACGTGTGGGT, the “relative binding free energy” value worked out at 0.24 kcal/mol.
Next, CGGTGCACGTGCTAGG: -0.07 kcal/mol.
Take GGCGTCACGTGGGTGA: the “relative binding free energy” value is -0.04 kcal/mol.
In the case of GGCACCACGTGGGGTG, the “relative binding free energy” value was -0.24 kcal/mol.
The value for TTGGACACGTGCTTTT was 0.04 kcal/mol; that for AATATCACGTGATTTT was 0.26 kcal/mol.
For the sequence GTCTGCACGTGGGTGG, the “relative binding free energy” value was -0.1 kcal/mol.
As to ATACTCACGTGTTATT, the “relative binding free energy” value was determined as 0.22 kcal/mol.
Regarding GGGGGCACGTGAGTCA, the “relative binding free energy” value was found to be 0 kcal/mol.
As to AGGGTCACGTGGTGTG, the “relative binding free energy” value came out at 0.03 kcal/mol.
As for TTTTTCACGTGTCGCA, the “relative binding free energy” value was 0.3 kcal/mol.
Regarding AATTCCACGTGGGTGG, the “relative binding free energy” value is -0.06 kcal/mol.
As for TGGATCACGTGAGCTG, the “relative binding free energy” value came to 0.33 kcal/mol.
The value for AGTTCCACGTGCGGGT was -0.01 kcal/mol.
Turning to AGAATCACGTGGGGAA, the “relative binding free energy” value was 0.02 kcal/mol.
In the case of CGTATCACGTGGTAGA, the “relative binding free energy” value came to 0.15 kcal/mol.
Consider TTGTACACGTGCGATT, for which the “relative binding free energy” value came to 0.06 kcal/mol.
GGAAGCACGTGCGAGG: the “relative binding free energy” value was -0.16 kcal/mol.
Consider AATATCACGTGAAGTT, for which the “relative binding free energy” value came out at 0.38 kcal/mol.
On to TTCTTCACGTGGGTAT, for which the “relative binding free energy” value stood at 0.16 kcal/mol.
The value for GGATGCACGTGGTTGA was -0.1 kcal/mol; that for TTAGTCACGTGGCGGC was -0.1 kcal/mol; that for CGTTGCACGTGGTTCG was -0.03 kcal/mol.
As to GAGGCCACGTGATGGT, the “relative binding free energy” value was determined as 0.13 kcal/mol.
Consider AGGCACACGTGGAATG, for which the “relative binding free energy” value is 0.16 kcal/mol.
The value for GTTCGCACGTGGATAG was -0.01 kcal/mol; that for ATTTACACGTGGTTCC was 0.31 kcal/mol.
In the case of AGCGGCACGTGGTGTA, the “relative binding free energy” value is -0.26 kcal/mol.
In the case of TGTGGCACGTGTACGT, the “relative binding free energy” value is -0.09 kcal/mol.
As for TATGTCACGTGACCTT, the “relative binding free energy” value is 0.31 kcal/mol.
With GTGTGCACGTGAAGGG, the “relative binding free energy” value amounted to 0.3 kcal/mol.
For ATTTGCACGTGTTGCC, the “relative binding free energy” value is 0.11 kcal/mol.
On to CGGGACACGTGGAATG, for which the “relative binding free energy” value stood at 0.06 kcal/mol.
The value for GTGTCCACGTGGTGGT was 0.06 kcal/mol; that for GGTATCACGTGAGGGG was 0.37 kcal/mol; that for ATGGTCACGTGACGGA was 0.13 kcal/mol.
TATGGCACGTGAATGA: the “relative binding free energy” value was found to be 0.14 kcal/mol.
Take ATGCGCACGTGTGTAA: the “relative binding free energy” value is -0.15 kcal/mol.
For the sequence TATTTCACGTGAGGTA, the “relative binding free energy” value is 0.37 kcal/mol.
In the case of GGATACACGTGATGTT, the “relative binding free energy” value is 0.12 kcal/mol.
Take TGCGTCACGTGATTGG: the “relative binding free energy” value turned out to be 0.31 kcal/mol.
With AAAGACACGTGTGGGC, the “relative binding free energy” value is 0.01 kcal/mol.
With GCATGCACGTGTTGTT, the “relative binding free energy” value came to 0 kcal/mol.
Regarding GGTTACACGTGTGCAT, the “relative binding free energy” value was found to be 0.09 kcal/mol.
Consider ATGTGCACGTGACGCG, for which the “relative binding free energy” value was determined as 0.18 kcal/mol.
Consider GCGTGCACGTGGCGAG, for which the “relative binding free energy” value was -0.01 kcal/mol.
TAGAGCACGTGGAGGC: the “relative binding free energy” value is -0.26 kcal/mol.
Take TAAGTCACGTGTTAGG: the “relative binding free energy” value is 0 kcal/mol.
Regarding TGGTTCACGTGGTGTC, the “relative binding free energy” value was 0.22 kcal/mol.
As for CGTGGCACGTGTTGGC, the “relative binding free energy” value is -0.02 kcal/mol.
The value for TGGCTCACGTGCGCGG was 0 kcal/mol.
As for AATGACACGTGGTTAA, the “relative binding free energy” value is -0.01 kcal/mol.
Regarding TAATGCACGTGGTTGG, the “relative binding free energy” value was -0.03 kcal/mol.
Take CAGTTCACGTGGTTTT: the “relative binding free energy” value was 0.29 kcal/mol.
Next, TTGATCACGTGTGGTT: 0.2 kcal/mol.
Regarding TGGGTCACGTGTTCAA, the “relative binding free energy” value amounted to 0.19 kcal/mol.
For TATAGCACGTGTATTG, the “relative binding free energy” value is -0.12 kcal/mol.
The value for CGTAACACGTGGTGGT was 0.08 kcal/mol; that for AGGAGCACGTGAGTCG was 0.21 kcal/mol.
The value for GGTAACACGTGAGGAG was 0.19 kcal/mol.
The value for GTAATCACGTGGGGGT was 0 kcal/mol.
On to GGGTGCACGTGGATCA, for which the “relative binding free energy” value was -0.04 kcal/mol.
With GCGGTCACGTGGAGCG, the “relative binding free energy” value turned out to be 0.16 kcal/mol.
As to GAGCGCACGTGGTTGC, the “relative binding free energy” value was 0.05 kcal/mol.
Take GCGGGCACGTGTTGAA: the “relative binding free energy” value is -0.04 kcal/mol.
As to GATTTCACGTGCAATT, the “relative binding free energy” value was found to be 0.5 kcal/mol.
With GATTACACGTGTAATG, the “relative binding free energy” value turned out to be 0.3 kcal/mol.
As for CTGAGCACGTGCTGGG, the “relative binding free energy” value was -0.21 kcal/mol.
Take AGTGTCACGTGGTCGT: the “relative binding free energy” value was 0.02 kcal/mol.
Turning to AGGCACACGTGTGTAG, the “relative binding free energy” value worked out at 0.01 kcal/mol.
TGGAGCACGTGTCCGG: the “relative binding free energy” value is -0.18 kcal/mol.
On to TGAGGCACGTGGAGAA, for which the “relative binding free energy” value was -0.09 kcal/mol.
With CGGGGCACGTGATGCG, the “relative binding free energy” value was -0.17 kcal/mol.
On to AGTGGCACGTGTTACG, for which the “relative binding free energy” value was -0.12 kcal/mol.
Regarding GAACGCACGTGCGGGG, the “relative binding free energy” value is -0.14 kcal/mol.
Next, GGGTTCACGTGTATAC: 0.25 kcal/mol; CTTCGCACGTGGGGTA: -0.27 kcal/mol.
For the sequence GGTTACACGTGTTTAG, the “relative binding free energy” value stood at 0.14 kcal/mol.
On to ACGAGCACGTGGGGTG, for which the “relative binding free energy” value is -0.34 kcal/mol.
As to TTTTACACGTGGTTAT, the “relative binding free energy” value came out at 0.02 kcal/mol.
Take GAAATCACGTGTGGCG: the “relative binding free energy” value stood at 0.22 kcal/mol.
With ATCGGCACGTGGTTAA, the “relative binding free energy” value is -0.11 kcal/mol.
Next, GGGTACACGTGGAGCT: 0.1 kcal/mol.
For CAGTTCACGTGAGGCT, the “relative binding free energy” value came to 0.38 kcal/mol.
Consider CGTGTCACGTGATTGA, for which the “relative binding free energy” value came to 0.11 kcal/mol.
For the sequence GTTGCCACGTGCTTGG, the “relative binding free energy” value is -0.09 kcal/mol.
As for TCAAGCACGTGGGGGG, the “relative binding free energy” value was -0.19 kcal/mol.
The value for AAGTGCACGTGGACTG was 0 kcal/mol; that for GCGCGCACGTGTGGGC was -0.02 kcal/mol; that for CGGTTCACGTGGCCGG was 0.18 kcal/mol.
With GGTGACACGTGTTCTA, the “relative binding free energy” value came to 0.07 kcal/mol.
As to TGTGGCACGTGTAGAA, the “relative binding free energy” value worked out at 0.14 kcal/mol.
For TTGAGCACGTGGGGGG, the “relative binding free energy” value was -0.19 kcal/mol.
Turning to AAGGTCACGTGTTACT, the “relative binding free energy” value was found to be 0.17 kcal/mol.
Next, AGAAACACGTGTGTGG: 0.1 kcal/mol; AAGTTCACGTGAAATG: 0.47 kcal/mol.
For the sequence GGCTCCACGTGAGGTG, the “relative binding free energy” value worked out at 0.3 kcal/mol.
With CTGCTCACGTGGGTGA, the “relative binding free energy” value is 0.19 kcal/mol.
As for ATGACCACGTGAGGGG, the “relative binding free energy” value worked out at 0.29 kcal/mol.
Turning to GGCTTCACGTGTTATG, the “relative binding free energy” value is 0.21 kcal/mol.
Consider TGGTTCACGTGGACAG, for which the “relative binding free energy” value turned out to be 0.2 kcal/mol.
With ATTGGCACGTGGAGGG, the “relative binding free energy” value is -0.09 kcal/mol.
On to CGAGGCACGTGTAGGG, for which the “relative binding free energy” value is 0.05 kcal/mol.
As to GATACCACGTGGAGGG, the “relative binding free energy” value stood at 0 kcal/mol.
Take AAGATCACGTGGTTAA: the “relative binding free energy” value was 0.12 kcal/mol.
Regarding GGTCACACGTGTTTAT, the “relative binding free energy” value was found to be 0.18 kcal/mol.
Consider TTTTTCACGTGTCTTT, for which the “relative binding free energy” value was found to be 0.14 kcal/mol.
The value for TTGTTCACGTGCATGC was 0.29 kcal/mol; that for GGCGTCACGTGATGAG was 0.24 kcal/mol; that for CTTTTCACGTGATGTA was 0.42 kcal/mol.
With TTTATCACGTGCTTGG, the “relative binding free energy” value was 0.19 kcal/mol.
As for TCGCTCACGTGTTGTG, the “relative binding free energy” value came to 0.07 kcal/mol.
The value for GCGGGCACGTGATGGC was 0.24 kcal/mol.
Take AGGATCACGTGGAGGA: the “relative binding free energy” value stood at 0.19 kcal/mol.
Consider AGTGGCACGTGGTTGA, for which the “relative binding free energy” value is -0.24 kcal/mol.
